Laboratory results: the supplement of paper PMC9446081
The campaign covered roughly 39,000 compounds. About 220 (0.56%) showed activity. The list shows a part of the results.

Each molecule was assayed on Escherichia coli K-12 BW25113 (assay: relative growth (OD600 normalised to plate interquartile mean) (fraction); higher = less growth inhibition, active = 0.2 or less). Conditions: 50 µM; LB; incubation time: overnight (16-24 h).
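Also: static incubation at 37 °C against the wild-type strain, values averaged over two biological replicates.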

SMILES	relative growth
C[C@H]1CN([C@@H](C)CO)C(=O)Cc2cc(NS(=O)(=O)c3cn(C)cn3)ccc2O[C@H]1CN(C)C	inactive: 1.01
Cn1cc(S(=O)(=O)N2CCN(Cc3ccccc3)CC2)c(=O)n(C)c1=O	inactive: 0.996
C[C@H](C(=O)N(C)C[C@@H]1OCc2ccccc2-c2c(n(C)c3ccccc23)C(=O)N([C@H](C)CO)C[C@H]1C)c1ccccc1	inactive: 0.982
C[C@@H]1CN([C@@H](C)CO)C(=O)c2cccc(NC(=O)Nc3ccc(C(F)(F)F)cc3)c2O[C@@H]1CN(C)Cc1ccc(Oc2ccccc2)cc1	inactive: 1.02
O=C1N[C@@H](CC(=O)N2CCN(CCc3ccncc3)CC2)C(=O)Nc2ccccc21	inactive: 0.988
C[C@H]1CN([C@@H](C)CO)C(=O)c2cccc(NS(C)(=O)=O)c2O[C@@H]1CN(C)C(=O)NC1CCCCC1	inactive: 0.975
COc1nn(C)cc1-c1n[nH]c(=S)n1C	inactive: 0.979
C[C@@H]1CN([C@H](C)CO)C(=O)c2cc(NC(=O)C3CCCCC3)ccc2O[C@@H](C)CCCCO[C@H]1CN(C)Cc1ccncc1	inactive: 1.01
O=C(O)[C@H]1CCCCN1	inactive: 1.01
COc1ccc2c3c(n(c2c1)C)[C@@H](CO)N(Cc1ccccc1)C[C@]13CCN(CC1)C(=O)Nc1cccc(c1)F	inactive: 1.01
C=CC[C@@H](CC(=O)NCCO)C(=O)N[C@H](COC(=O)[C@H](CC=C)CC(=O)OC(C)(C)C)Cc1c[nH]c2ccccc12	inactive: 1
C=c1ccc(S(=O)(=O)N2CCCC2)cc1=C1NN=C2c3ccccc3C(C)=NN21	inactive: 1.02
O=C(C[C@H]1C[C@H]2c3cc(NC(=O)Nc4ccccc4)ccc3O[C@H]2[C@H](CO)O1)NCCN1CCCCC1	inactive: 0.994
C[C@@H]1CN([C@H](C)CO)C(=O)c2cc(NC(=O)c3ccncc3)ccc2O[C@@H]1CN(C)Cc1ccncc1	inactive: 1.02
C[C@H]1CN([C@@H](C)CO)C(=O)c2cccc(NS(=O)(=O)c3cccs3)c2O[C@H]1CN(C)Cc1ccncc1	inactive: 0.978
CO[C@@H]1CN(C)C(=O)c2cc(NC(=O)CC(F)(F)F)ccc2OC[C@H](C)N(S(=O)(=O)c2cn(C)cn2)C[C@@H]1C	inactive: 0.997
C[C@@H]1CN([C@@H](C)CO)C(=O)Cc2cc(NC(=O)Cn3cnnn3)ccc2O[C@H]1CN(C)S(=O)(=O)c1ccccc1	inactive: 0.993
CO[C@@H]1CN(C)C(=O)c2ccc(NC(=O)CN(C)C)cc2OC[C@@H](C)N(C(=O)C2CCCCC2)C[C@H]1C	inactive: 0.983
C[C@H](CO)N1C[C@H](C)[C@@H](CN(C)S(=O)(=O)c2ccc(-n3cccn3)cc2)OCc2cn(nn2)CCCC1=O	inactive: 1.05
CCNc1ncnc2c1nnn2C	inactive: 1.02
C[C@H](CO)N1C[C@H](C)[C@@H](CN(C)Cc2ccc3c(c2)OCO3)Oc2cc(Br)ccc2S1(=O)=O	inactive: 0.929
CC(O)(CC(=O)O)CC(=O)O	inactive: 0.855

SMILES	relative growth
NC(=O)c1ncn(C2OC(CO)C(O)C2O)c1N (stereo not given)	inactive: 1.04
COc1ccc(NC(=O)N2C[C@@H](O)COC[C@H]3O[C@@H](CC(=O)NC4Cc5ccccc5C4)CC[C@@H]32)cc1	inactive: 1.02
C[C@@H]1CCCCO[C@H](CN(C)S(C)(=O)=O)[C@@H](C)CN([C@@H](C)CO)C(=O)c2cc(N(C)C)ccc2O1	inactive: 0.984
C[C@@H]1CN([C@H](C)CO)S(=O)(=O)c2ccc(C3=CCCCC3)cc2O[C@@H]1CN(C)C(=O)C1CCOCC1	inactive: 1.02
NC(=O)c1ccccc1NC(=O)CCC(=O)O	inactive: 1.01
C[C@@H]1CCCCO[C@@H](CN(C)S(C)(=O)=O)[C@H](C)CN([C@H](C)CO)C(=O)c2cc(N(C)C)ccc2O1	inactive: 1
C[C@H]1CN([C@@H](C)CO)C(=O)Cc2cc(NC(=O)C3CCCCC3)ccc2O[C@@H]1CN(C)C(=O)Nc1ccc(C(F)(F)F)cc1	inactive: 0.982
C[C@H]1CN([C@@H](C)CO)C(=O)Cc2cc(NC(=O)Cn3cnnn3)ccc2O[C@@H]1CN(C)C(=O)Nc1ccc(F)cc1	inactive: 1.03
CO[C@H]1CN(C)C(=O)c2cc(NS(=O)(=O)CC(F)(F)F)ccc2OC[C@@H](C)N(Cc2nccs2)C[C@@H]1C	inactive: 0.962
C(=C\c1ccccc1)/CSc1ncnc2c1oc1ccccc12	inactive: 1.02
O=C(CCCCCCC(=O)N/N=C/[C@H](O)[C@@H](O)[C@H](O)[C@H](O)CO)NO	inactive: 1.01
NNC(=O)c1ccncc1.Nc1ccc(C(=O)O)c(O)c1	inactive: 0.943
C[C@@H]1CCCCO[C@H](CN(C)C(=O)Nc2ccc(C(F)(F)F)cc2)[C@@H](C)CN([C@@H](C)CO)C(=O)c2cc(NC(=O)Cc3ccccc3)ccc2O1	inactive: 0.98
C[C@@H]1CN([C@H](C)CO)C(=O)c2cccc(NS(=O)(=O)c3ccc(Cl)cc3)c2O[C@@H]1CN(C)Cc1ccc(Oc2ccccc2)cc1	inactive: 1.03
O=C(c1ccncc1)N1C[C@@H]2[C@H](c3ccccc31)[C@@H](CO)N2C(=O)CN1CCOCC1	inactive: 1.05
Cc1ccc(S(=O)(=O)Nc2ccc3c(c2)C(=O)N([C@@H](C)CO)C[C@H](C)[C@H](CN(C)C(=O)CCC(F)(F)F)OCCCC[C@@H](C)O3)cc1	inactive: 0.977
CN(C)C(=O)CN1C[C@@H]2CCN(C(=O)NCc3ccccc3)CC[C@H]2S1(=O)=O	inactive: 0.997
Cc1ccc(S(=O)(=O)Nc2ccc3c(c2)C(=O)N([C@@H](C)CO)C[C@@H](C)[C@@H](CN(C)C(=O)Cc2ccccc2)OCCCC[C@H](C)O3)cc1	inactive: 1.04
CC(C)NC(=O)Nc1ccc2c(c1)C(=O)N([C@H](C)CO)C[C@H](C)[C@H](CN(C)Cc1ccc(Cl)c(Cl)c1)OCCCC[C@@H](C)O2	inactive: 0.947
COc1cccc(NC(=O)N2C[C@@H](O)COC[C@@H]3O[C@H](CC(=O)NCCCN4CCOCC4)CC[C@H]32)c1	inactive: 0.996
C[C@@H]1CN([C@H](C)CO)C(=O)c2cccc(NC(=O)Nc3ccc4c(c3)OCO4)c2O[C@@H]1CN(C)C(=O)Nc1cccc2ccccc12	inactive: 1.01
COc1ccc(NC(=O)N(C)C[C@@H]2OCCCC[C@@H](C)Oc3ccc(NC(=O)C4CCCCC4)cc3C(=O)N([C@@H](C)CO)C[C@@H]2C)cc1	inactive: 0.984

SMILES	relative growth
CNC[C@H]1OCCCC[C@H](C)Oc2ccc(NC(=O)CCCN(C)C)cc2C(=O)N([C@H](C)CO)C[C@@H]1C	inactive: 1.05
Cn1cnc(S(=O)(=O)N2C[C@@H](O)COC[C@H]3O[C@H](CC(=O)NCc4cc(F)cc(F)c4)CC[C@@H]32)c1	inactive: 0.992
C[C@H](CO)N1C[C@H](C)[C@H](CN(C)S(=O)(=O)c2cn(C)cn2)Oc2ccc(NC(=O)Nc3ccccc3)cc2CC1=O	inactive: 1.02
CNCCCC1c2ccccc2C=Cc2ccccc21.Cl	inactive: 1.1
C[C@H]1CCCCO[C@H](CN(C)S(=O)(=O)c2ccc(F)cc2)[C@@H](C)CN([C@@H](C)CO)C(=O)c2cc(NS(C)(=O)=O)ccc2O1	inactive: 1.02
C[C@H]1CN([C@@H](C)CO)S(=O)(=O)c2ccc(C#Cc3ccccn3)cc2O[C@H]1CN(C)Cc1ccccc1	inactive: 1.01
C[C@@H]1CN([C@@H](C)CO)C(=O)c2cccc(NS(C)(=O)=O)c2O[C@H]1CN(C)C(=O)Nc1ccc(F)cc1	inactive: 0.996
COc1ccc(NC(=O)N(C)C[C@H]2Oc3ncc(C#C[C@H](C)O)cc3C(=O)N([C@@H](C)CO)C[C@H]2C)cc1	inactive: 0.972
C[C@H](CO)N1C[C@H](C)[C@@H](CN(C)Cc2ccc(C(=O)Nc3ccccc3N)cc2)Oc2c(NS(C)(=O)=O)cccc2C1=O	inactive: 0.991
Cc1sc(C)c(CNc2ccccc2)c1CNc1ccccc1	inactive: 1.01
O=C(C[C@@H]1CC[C@H]2[C@@H](COC[C@@H](O)CN2C(=O)C2CC2)O1)NCc1ccncc1	inactive: 1.01
O=C(N1CCOCC1)[C@]1(CCS(=O)(=O)c2ccccc2)N=C(c2ccc(OCCCO)cc2)O[C@@H]1c1ccccc1	inactive: 1.02
COc1ccc(COC[C@]23NC(=O)N[C@H](c4ccccc4O2)[C@H]3COC(=O)NCCCCCC(=O)NO)cc1	inactive: 1.01
C[C@@H]1CN([C@H](C)CO)C(=O)c2cc(NC(=O)Cn3cnnn3)ccc2O[C@@H]1CN(C)Cc1ccc(C(=O)O)cc1	inactive: 0.985
C[C@@H]1CN([C@H](C)CO)C(=O)CCCn2nncc2CO[C@H]1CN(C)C(=O)Nc1cccc2ccccc12	inactive: 0.983
O=C(O)c1nn(Cc2ccccc2)nc1C(=O)O	inactive: 1
C[C@@H]1CCCCO[C@@H](CN(C)Cc2ccc(C(=O)O)cc2)[C@@H](C)CN([C@H](C)CO)C(=O)c2cc(NC(=O)Cc3ccccc3)ccc2O1	inactive: 0.979
CC(=O)NCCCC[C@@H]1NC(=O)[C@H]2C[C@@H](C(=O)NCCCCCN)[C@@H](c3cccc(OCCO)c3)N2C1=O	inactive: 1.01
O=c1nc[nH]c2ccccc12	inactive: 1.01
CCO[C@@H]1OC(C(=O)N2CCN(Cc3ccccc3)CC2)=C[C@H](c2ccc(Br)cc2)[C@H]1CCCOC(=O)NCCCCCC(=O)NO	inactive: 0.998
COc1ccc(S(=O)(=O)Nc2ccc3c(c2)CC(=O)N([C@@H](C)CO)C[C@@H](C)[C@H](CN(C)S(C)(=O)=O)O3)cc1	inactive: 1.03
